# Measurements from the supplement of paper PMC8728848.
# This is one part of the list.
# Columns and labels:
# Test in all cases: glycan array binding signal (z-score within array); higher = stronger binding
# Conditions in all cases: glycan notation: IUPAC condensed, linker removed
# [1] = target: Gal(a1-3)[Gal(a1-4)]Gal(b1-4)GlcNAc
# In short: (§1)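 The binding signal is a Z-score computed within each array. Data were drawn from 3228 arrays in the Consortium for Functional Glycomics database, restricted to those with a known protein sequence. Scores were averaged over arrays of the same protein sequence at different concentrations or buffers, and over linkers, and negative values can be taken as non-binding.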
# [2] = target: Gal(a1-4)Gal(b1-3)GlcNAc(b1-2)Man(a1-3)[Gal(a1-4)Gal(b1-3)GlcNAc(b1-2)Man(a1-6)]Man(b1-4)GlcNAc(b1-4)GlcNAc
# In short: as §1
# Gal(a1-4)Gal(b1-4)Glc = target: Gal(a1-4)Gal(b1-4)Glc
# In short: as §1
# Gal(a1-4)Gal(b1-4)GlcNAc = target: Gal(a1-4)Gal(b1-4)GlcNAc
# In short: as §1
# [3] = target: Gal(a1-4)Gal(b1-4)GlcNAc(b1-2)Man(a1-3)[Gal(a1-4)Gal(b1-4)GlcNAc(b1-2)Man(a1-6)]Man(b1-4)GlcNAc(b1-4)GlcNAc
# In short: as §1
# [4] = target: Gal(a1-4)Gal(b1-4)GlcNAc(b1-3)Gal(b1-4)Glc
# In short: as §1
# Gal(a1-4)GlcNAc = target: Gal(a1-4)GlcNAc
# In short: as §1
# Gal(a1-6)Glc = target: Gal(a1-6)Glc
# In short: as §1
# Gal(b1-2)Gal = target: Gal(b1-2)Gal
# In short: as §1
# Gal(b1-3)Gal = target: Gal(b1-3)Gal
# In short: as §1
# Gal(b1-3)Gal(b1-4)GlcNAc = target: Gal(b1-3)Gal(b1-4)GlcNAc
# In short: as §1
# [5] = target: Gal(b1-3)Gal(b1-4)GlcNAc(b1-2)Man(a1-3)[Gal(b1-3)Gal(b1-4)GlcNAc(b1-2)Man(a1-6)]Man(b1-4)GlcNAc(b1-4)GlcNAc
# In short: as §1
# Gal(b1-3)GalNAc = target: Gal(b1-3)GalNAc
# In short: as §1
# [6] = target: Gal(b1-3)GalNAc(a1-3)[Fuc(a1-2)]Gal(b1-4)Glc
# In short: as §1
# [7] = target: Gal(b1-3)GalNAc(a1-3)[Fuc(a1-2)]Gal(b1-4)GlcNAc
# In short: as §1
# Gal(b1-3)GalNAc(b1-3)Gal = target: Gal(b1-3)GalNAc(b1-3)Gal
# In short: as §1
# [8] = target: Gal(b1-3)GalNAc(b1-3)Gal(a1-4)Gal(b1-4)Glc
# In short: as §1
# [9] = target: Gal(b1-3)GalNAc(b1-4)Gal(b1-4)Glc
# In short: as §1
# [10] = target: Gal(b1-3)GalNAc(b1-4)[Neu5Ac(a2-3)]Gal(b1-4)Glc
# In short: as §1
# Gal(b1-3)GlcNAc = target: Gal(b1-3)GlcNAc
# In short: as §1
# [11] = target: Gal(b1-3)GlcNAc(a1-3)Gal(b1-4)GlcNAc
# In short: as §1
# [12] = target: Gal(b1-3)GlcNAc(a1-6)Gal(b1-4)GlcNAc
# In short: as §1
# Gal(b1-3)GlcNAc(b1-2)Man = target: Gal(b1-3)GlcNAc(b1-2)Man
# In short: as §1
# [13] = target: Gal(b1-3)GlcNAc(b1-2)Man(a1-3)[Gal(b1-3)GlcNAc(b1-2)Man(a1-6)]Man(b1-4)GlcNAc(b1-4)GlcNAc
# In short: as §1
# [14] = target: Gal(b1-3)GlcNAc(b1-2)Man(a1-3)[Gal(b1-3)GlcNAc(b1-2)Man(a1-6)]Man(b1-4)GlcNAc(b1-4)[Fuc(a1-6)]GlcNAc
# In short: as §1
# [15] = target: Gal(b1-3)GlcNAc(b1-2)Man(a1-3)[GlcNAc(b1-4)][Gal(b1-3)GlcNAc(b1-2)Man(a1-6)]Man(b1-4)GlcNAc(b1-4)GlcNAc
# In short: as §1
# [16] = target: Gal(b1-3)GlcNAc(b1-2)[Gal(b1-3)GlcNAc(b1-6)]Man(a1-6)[Gal(b1-3)GlcNAc(b1-2)Man(a1-3)]Man(b1-4)GlcNAc(b1-4)GlcNAc
# In short: as §1
# [17] = target: Gal(b1-3)GlcNAc(b1-3)Gal(b1-3)GlcNAc
# In short: as §1
# [18] = target: Gal(b1-3)GlcNAc(b1-3)Gal(b1-4)Glc
# In short: as §1
# [19] = target: Gal(b1-3)GlcNAc(b1-3)Gal(b1-4)GlcNAc
# In short: as §1
# [20] = target: Gal(b1-3)GlcNAc(b1-3)Gal(b1-4)GlcNAc(b1-2)Man(a1-3)[Gal(b1-3)GlcNAc(b1-3)Gal(b1-4)GlcNAc(b1-2)Man(a1-6)]Man(b1-4)GlcNAc(b1-4)GlcNAc
# In short: as §1
# [21] = target: Gal(b1-3)GlcNAc(b1-3)Gal(b1-4)GlcNAc(b1-2)[Gal(b1-3)GlcNAc(b1-3)Gal(b1-4)GlcNAc(b1-6)]Man(a1-6)[Gal(b1-3)GlcNAc(b1-3)Gal(b1-4)GlcNAc(b1-2)Man(a1-3)]Man(b1-4)GlcNAc(b1-4)[Fuc(a1-6)]GlcNAc
# In short: as §1
# [22] = target: Gal(b1-3)GlcNAc(b1-3)Gal(b1-4)GlcNAc(b1-3)Gal(b1-4)GlcNAc(b1-2)[Gal(b1-3)GlcNAc(b1-3)Gal(b1-4)GlcNAc(b1-3)Gal(b1-4)GlcNAc(b1-6)]Man(a1-6)[Gal(b1-3)GlcNAc(b1-3)Gal(b1-4)GlcNAc(b1-3)Gal(b1-4)GlcNAc(b1-2)Man(a1-3)]Man(b1-4)GlcNAc(b1-4)[Fuc(a1-6)]GlcNAc
# In short: as §1
# [23] = target: Gal(b1-3)GlcNAc(b1-3)Gal(b1-4)GlcNAc(b1-6)[Gal(b1-3)GlcNAc(b1-3)]Gal(b1-4)Glc
# In short: as §1
# [24] = target: Gal(b1-3)GlcNAc(b1-3)Gal(b1-4)[Fuc(a1-3)]GlcNAc
# In short: as §1
# [25] = target: Gal(b1-3)GlcNAc(b1-3)Gal(b1-4)[Fuc(a1-3)]GlcNAc(b1-6)[Gal(b1-3)GlcNAc(b1-3)]Gal(b1-4)Glc
# In short: as §1
# [26] = target: Gal(b1-3)GlcNAc(b1-3)GalNAc
# In short: as §1
binder,measurement,setting,value
PpFlo1 (Pichia pastoris) (protein) MGSSHHHHHHSSGLVPRGSHMQESGDGDISDSAYACDIDATRYDGFNATIYEFQPGDGRLTRDPVFMSTGYLNRTQLHSITGVTDPGFSIYTPGVPTTTLYGIPNVNWENLLLELKGYFRAEVSGDYGLSLRNIDDSAILFFGKETAFQCCNENSISNEASTDYSLFTIFRQEGDETTNLDSFTYTQYLEAGKYYPVRTFFVNIERHAVFNFTMTLPDGTELTDFHNYIYQFGALDEEQCQA,glycan array binding signal (z-score),[1],1.19
same,glycan array binding signal (z-score),[2],0.024
same,glycan array binding signal (z-score),Gal(a1-4)Gal(b1-4)Glc,-0.127
same,glycan array binding signal (z-score),Gal(a1-4)Gal(b1-4)GlcNAc,-0.164
same,glycan array binding signal (z-score),[3],-0.058
same,glycan array binding signal (z-score),[4],-0.25
same,glycan array binding signal (z-score),Gal(a1-4)GlcNAc,-0.067
same,glycan array binding signal (z-score),Gal(a1-6)Glc,-0.08
same,glycan array binding signal (z-score),Gal(b1-2)Gal,-0.47
same,glycan array binding signal (z-score),Gal(b1-3)Gal,0.345
same,glycan array binding signal (z-score),Gal(b1-3)Gal(b1-4)GlcNAc,-0.114
same,glycan array binding signal (z-score),[5],0.695
same,glycan array binding signal (z-score),Gal(b1-3)GalNAc,0.094
same,glycan array binding signal (z-score),[6],-0.55
same,glycan array binding signal (z-score),[7],-0.423
same,glycan array binding signal (z-score),Gal(b1-3)GalNAc(b1-3)Gal,-0.245
same,glycan array binding signal (z-score),[8],-0.321
same,glycan array binding signal (z-score),[9],3.27
same,glycan array binding signal (z-score),[10],-0.012
same,glycan array binding signal (z-score),Gal(b1-3)GlcNAc,-0.262
same,glycan array binding signal (z-score),[11],-0.388
same,glycan array binding signal (z-score),[12],-0.44
same,glycan array binding signal (z-score),Gal(b1-3)GlcNAc(b1-2)Man,-0.574
same,glycan array binding signal (z-score),[13],-0.158
same,glycan array binding signal (z-score),[14],0.388
same,glycan array binding signal (z-score),[15],0.713
same,glycan array binding signal (z-score),[16],0.162
same,glycan array binding signal (z-score),[17],-0.344
same,glycan array binding signal (z-score),[18],-0.547
same,glycan array binding signal (z-score),[19],-0.245
same,glycan array binding signal (z-score),[20],0.317
same,glycan array binding signal (z-score),[21],-0.145
same,glycan array binding signal (z-score),[22],0.485
same,glycan array binding signal (z-score),[23],-0.268
same,glycan array binding signal (z-score),[24],-0.202
same,glycan array binding signal (z-score),[25],-0.148
same,glycan array binding signal (z-score),[26],-0.531
